Test results reported in PubChem BioAssay AID2060359 (Molecular Pharmacology Branch, DTP, NCI, 2025).
The source holds more than one record for some entries. They are shown here; other results are not. An entry can have further records. Results that share an entry are repeats across runs, samples, wells, individuals or studies. A date in brackets names the month of the test. Counts like (3×) count equal records among those shown.

System: 276233-004-R-J1-PDC spheroids with HUVEC/MSC, viability
Assay: Anticancer human tumor 276233-004-R-J1-PDC patient-derived colon adenocarcinoma cell line growth inhibition [TAK]
Details: for viability, T/C: stronger effect = lower value; for IC50: compound alone
Source text: Combinatorial screen of targeted agents with TAK-243 and ipatasertib in multi-cell type tumor spheroids
A high-throughput screen of multi-cell type tumor spheroids was designed to identify active combinations of targeted small molecules and TAK-243 or ipatasertib. Complex spheroids include a stromal component modeled by human endothelial cells (HUVEC) and fibroblasts modeled by human mesenchymal stem cells (MSCs). The concentration ranges selected for each drug and investigational agent were based upon clinically achievable concentrations if the clinical Cmax of the agent was known.
Compounds. The drugs and investigational agents: TAK-243 (785004), ipatasertib (767898), everolimus (733504), selumetinib (741078), bortezomib (756655), trametinib (758246), ixazomib (758254), vemurafenib (761431), dabrafenib (764134), sapanisertib (764658), alpelisib (765974), and copanlisib (816437), were obtained from the National Cancer Institute (NCI) Developmental Therapeutics Program Chemical Repository. The FDA-approved anticancer drug set is available from the NCI Developmental Therapeutics Program. […] The stock solutions were prepared in dimethyl sulfoxide (DMSO, Sigma-Aldrich, St. Louis, MO, cat. D2650) at 800-fold the tested concentration and stored at -70 degrees C prior to their use. All drugs and investigational agents were tested over a range starting from a high concentration at or near the clinical Cmax and decreasing in half-log increments. If the clinical Cmax for an agent had not been determined, the highest concentration tested was 10 microM.
NCI60 Cell Culture. NCI60 cell lines were obtained from the NCI Developmental Therapeutics Program Tumor Repository. For each lot of cells, the Repository performed Applied Biosystems AmpFLSTR Identifiler testing with PCR amplification to confirm consistency with the published Identifier STR profile for each cell line. Cells were kept in continuous culture for no more than 20 passages. The optimal seeding densities for each of the cell lines at each time point assessed were determined prior to performing the concentration response studies. Briefly, the NCI60 human tumor lines were grown as monolayers in RPMI 1640 medium supplemented with 10% FBS and 2 mmol/L L-glutamine.
An additional 2 lines were from the NCI60 cell line panel including melanomas, MALME-3M and SK-MEL-2. Pooled donor human umbilical vein endothelial cells (HUVEC, Lonza, cat. CC-2519) and human mesenchymal stem cells (hMSC, Lonza, cat. PT-2501) were purchased from Lonza (Walkersville, MD).
PDMR cell lines were grown in complete medium (DC medium): Dulbecco's modified Eagle's medium (DMEM)/F12 supplemented with 5% fetal bovine serum (FBS), 2 mM L-glutamine, 100 U/mL penicillin and 100 µg/ml streptomycin, 0.4 µg/ml hydrocortisone, 10 ng/ml epidermal growth factor (EGF) recombinant human protein, 24 µg/mL adenine, and 0.1 mg/mL primocin. During culture from frozen stock vials, PDMR cells were cultured in the same medium containing 10 µM Y-27632 (see Table 3). The PDCs were cultured in complete DMEM/F12 media without 10 microM Y-27632 dihydrochloride for at least two passages prior to the screen. The pooled donor HUVEC and hMSC were cultured in endothelial cell growth medium 2 (PromoCell, Heidelberg, Germany, cat. C-22011) and mesenchymal stem cell growth medium 2 (PromoCell, cat. C-28009), respectively. […]
For the pre-screen, cell seeding densities were determined from a titration spanning the range from 5,000 to 313 cells per well. […]
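Note: spheroids exposed to drugs for seven days before the viability read.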

SMILES | viability, T/C (compound alone 0.3 µM) | viability, T/C (compound alone 9.49 µM) | viability, T/C (compound alone 30 µM) | IC50 (run of 02/28/2020) | IC50
CC(C)NCC(C(=O)N1CCN(c2ncnc3c2C(C)CC3O)CC1)c1ccc(Cl)cc1 (stereo not given) | 79.4, 108, 75, 95.5, 85.2, 88.6% [2020-02] and 88.7, 93.8, 104, 85% [2020-03] | 64.8 (2×), 82.6, 77.3, 66.1, 67.7% [2020-02] and 56.5, 70, 73.4, 61.5% [2020-03] | 51.4, 44.2, 52.3, 52.2, 11.7, 35.5% [2020-02] and 49.8, 63, 58.8, 65.5% [2020-03] | 25.7 µM, > 30 µM, 13.3 µM, 16.7 µM | –
COc1c(OCCCN2CCOCC2)ccc2c3n(c(=NC(=O)c4cnc(N)nc4)nc12)CCN3 | – | – | – | – | 87.8 nM [2020-02] and > 1 µM [2020-03]
